In the supplement of paper PMC10369915:
Some of the results follow. Cut-off read from the data, not from the text of the source: active = 3.2 or more and inactive = the rest. Most of these values are background signal.

B1: TIMP3_Y177 (peptide)
chain: FGYPGYQSKHY
B2: TIMP3_Y177_S179C (peptide)
chain: FGYPGYQCKHY
B3: TIMP3_Y177_S179C_YF (peptide)
chain: FGFPGYQCKHF
B4: TIMP3_Y177_YF (peptide)
chain: FGFPGYQSKHF
B5: TIMP3_Y182_S179C (peptide)
chain: YQCKHYACIRQ
B6: TIMP3_Y195_G190C (peptide)
chain: CYCSWYRGWAP
B7: TIMP3_Y195_G190C_YF (peptide)
chain: CFCSWYRGWAP
B8: TIMP3_Y195_Y191C (peptide)
chain: GCCSWYRGWAP
B9: TIMP3_Y195_YF (peptide)
chain: GFCSWYRGWAP
B10: TJP1_Y1346 (peptide)
chain: VRSNHYDPEED
B11: TJP1_Y931 (peptide)
chain: SSPVPYLSPET
B12: TJP1_Y931_P930L (peptide)
chain: SSPVLYLSPET
B13: TK2_Y181 (peptide)
chain: VDLIVYLRTNP
B14: TKT_Y563 (peptide)
chain: TVEDHYYEGGI
B15: TKT_Y563_Y563D (peptide)
chain: TVEDHDYEGGI
B16: TKT_Y563_Y563D_YF (peptide)
chain: TVEDHDFEGGI
B17: TKT_Y564_YF (peptide)
chain: VEDHFYEGGIG
B18: TKTL1_Y318 (peptide)
chain: DGDTRYSTFSE
B19: TLK2_Y259 (peptide)
chain: KMLEKYKERLN

Each binder was assayed against SHP2 C-SH2 domain E139D (assay: enrichment score (SH2-bound / input frequency) (ratio); bacterial display of known human phosphotyrosine sites (pTyr-Var adds point mutants) read by sequencing; higher = stronger binding; tyrosines were phosphorylated by kinases first). Details: peptide library: pTyr-Var.
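Note: displayed peptides selected on beads carrying the immobilized SH2 domain, with library peptides lacking any tyrosine serving as negative controls.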

Enrichment score, active:
B5 4.38
B6 3.88
B7 4.44

Enrichment score, inactive:
B1 1.03
B2 1.48
B3 1.31
B4 0.981
B8 2.19
B9 1.06
B10 0.42
B11 0.806
B12 0.75
B13 0.724
B14 0.707
B15 0.542
B16 0.542
B17 0.913
B18 0.626
B19 1.17

These binders were tested against SHP2 C-SH2 domain wild-type in the same assay as above. Details: peptide library: pTyr-Var.

Enrichment score, inactive:
B1 0.769
B2 1.34
B3 1.29
B4 0.813
B8 2.11
B9 1.08
B10 0.454
B11 0.736
B12 0.613
B13 0.781
B14 0.903
B15 0.555
B16 0.674
B17 0.869
B18 0.697
B19 0.887

Enrichment score, active:
B5 4.09
B6 3.6
B7 3.96

These binders were tested against SHP2 N-SH2 domain L43F in the same assay as above. Details: peptide library: pTyr-Var.

Enrichment score, inactive:
B1 1.08
B2 1.34
B3 1.34
B4 0.917
B8 2.09
B9 0.736
B10 0.967
B11 0.694
B12 2.15
B13 0.698
B14 0.749
B15 0.497
B16 0.666
B17 0.988
B18 0.642
B19 0.898

Enrichment score, active:
B5 3.64
B6 3.51
B7 4.03

Each binder was assayed against SHP2 N-SH2 domain T42A in the same assay as above. Details: peptide library: pTyr-Var.

Enrichment score, inactive:
B1 0.774
B2 1.22
B3 1.32
B4 0.845
B5 2.68
B7 2.98
B8 1.84
B9 0.747
B10 0.302
B11 0.644
B13 0.496
B14 0.566
B15 0.488
B16 0.443
B17 0.627
B18 0.645
B19 0.794

Enrichment score, active:
B6 3.27
B12 3.24

Each binder was assayed against SHP2 N-SH2 domain T52S in the same assay as above. Details: peptide library: pTyr-Var.

Enrichment score, active:
B5 3.54
B7 3.6

Enrichment score, inactive:
B1 0.911
B2 1.27
B3 1.3
B4 0.805
B6 3.1
B8 2.21
B9 0.83
B10 0.433
B11 0.769
B12 2.3
B13 0.533
B14 0.696
B15 0.514
B16 0.611
B17 0.765
B18 0.549
B19 0.906

The binders below were run against SHP2 N-SH2 domain wild-type in the same assay as above. Details: peptide library: pTyr-Var.

Enrichment score, inactive:
B1 0.808
B2 1.27
B3 1.22
B4 0.816
B8 1.78
B9 1.26
B10 0.423
B11 0.772
B12 1.1
B13 0.838
B14 0.557
B15 0.528
B16 0.629
B17 0.688
B18 0.534
B19 0.962

Enrichment score, active:
B5 3.26
B6 3.95
B7 4.33
